Test results reported in article PMC12136788.
The list shows a part of the results.

T1: UNK ZnF1-3 (human, UniProt Q9C0B0 31-174)
T1 sequence: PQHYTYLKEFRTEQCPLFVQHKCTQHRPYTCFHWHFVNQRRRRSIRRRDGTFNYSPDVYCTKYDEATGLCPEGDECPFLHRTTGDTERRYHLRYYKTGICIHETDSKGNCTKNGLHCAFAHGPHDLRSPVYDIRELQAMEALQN

B1: chrX:130830105:130830106:+_ENSMUSG00000033578_ENSMUST00000037687|mus_hu|FALSE|FALSE (ssRNA)
RNA: GGGAGUUCUACAGUCCGACGAUCACUGUAGGCAUCCUUGCUGAGCCUGGGGGUCAGCUUGAUAGUCCCCAUGAAAACAAAGAAGAGUCCCAGGGCCACUGAGAGGGCCACAAUAGUUACGGUUCUGGGGGAUGCCAUGGGGUCCAACAGAGGAUUGAGCAUCA
B2: chr9:128199989:128199990:-_ENSG00000119487_ENST00000373498|hu_mus|FALSE|FALSE (ssRNA)
RNA: GGGAGUUCUACAGUCCGACGAUCCAAAGAAGCACACUUGACUCUGAGAUGCUUAGACACAAUGAUUUAAAAAAUGUCCUAAACACAGGUCGUAUAAGAUAUCGGCUGUGGCCCUGGCCCAAGGAUGCUGCCACAGGCGGGACCCAACAGAGGAUUGAGCAUCA
B3: chr17:64801638:64801639:+_ENSG00000154229_ENST00000413366|hu_mus|hu_hu_hu_mus_False|58_98 (ssRNA)
RNA: GGGAGUUCUACAGUCCGACGAUCUAUAUAUAUAUAUAUAUACACACACAUAUAUAGUAAAACCCUAGUUAAACGUGUAAACUAGCCAUUCAUUUUUAAAAUUACAUCUACAUUAAAAAAUUAAUAUAUCUGAUAGAGUGCCAGCAACAGAGGAUUGAGCAUCA
B4: 33134949_33138083_1000_CDS_ENSG00000162521_ENST00000458695|human|control|control (ssRNA)
RNA: GGGAGUUCUACAGUCCGACGAUCUAAAAUAGUCUCAUUGUGAGGUGACCACUGAACCUGGAAUAUUUCAUCCUUAUGUGACUCAAAGGAAUGCAACUUAAGUUUCAGAUUUCUCAGAUCCCACAAGGCAACAGUCUUGUCAGCCAACAGAGGAUUGAGCAUCA
B5: chr16:94664741:94664742:+_ENSMUSG00000040785_ENSMUST00000117648|mus_hu|mus_mus_mus_hu_False|18_28 (ssRNA)
RNA: GGGAGUUCUACAGUCCGACGAUCUGGUACUGAUCUUGGUAGCUGAUAUUCAGGAGAAAGGCUGGCCAAGGGUGUAUAUAUGCUGGUGUACUGGGGCAAACCUGGUACCAUGUUAAUGUACGCUGGUGGUGUCUGGGUGAUAUCCAACAGAGGAUUGAGCAUCA
B6: chr13:24894569:24894570:+_ENSMUSG00000019132_ENSMUST00000019276|mus_hu|FALSE|FALSE (ssRNA)
RNA: GGGAGUUCUACAGUCCGACGAUCAGUACCUAAUUCUUAGUUAUUUCAGAUUUCACUAUUGCUAUGUAUUGUCAGUGCUUGUUAUUGAUUACACUUGGUGGUGAGCAUAGAGAAAAGUGCAAAAUCGGUAGAGAAGGAAAGGGACAACAGAGGAUUGAGCAUCA
B7: chr5:74425352:74425353:-_ENSMUSG00000054814_ENSMUST00000068058|mus_hu|FALSE|FALSE (ssRNA)
RNA: GGGAGUUCUACAGUCCGACGAUCUUCCUGUUUCUUCUCCUCCUGAAGGAUGUCCGCAAUAGUGUUUAGCAAAUAAUUUAAAAAUUCAUGAGCAUCCUGCUGCAUGUAGUUAUCAAAGAGAUCAUUCUCUUUUCUCAGCCUUGACAACAGAGGAUUGAGCAUCA
B8: chr2:202488911:202488912:-_ENSG00000155755_ENST00000286196|hu_mus|hu_hu_hu_mus_False|58_78 (ssRNA)
RNA: GGGAGUUCUACAGUCCGACGAUCAUUGAAACAUUUUUCAUAAUCUCCAGUAGCAUUCAGUAUUAUAGUAACAAAAGAUCUAUUACAAAUACAUGUAUCUUAUAAAAAUACACUUAAAAACACGAGUGGGGAGCGCAGGCGCCACAACAGAGGAUUGAGCAUCA
B9: chr11:77336104:77336105:-_ENSG00000074201_ENST00000525064|hu_mus|hu_hu_hu_mus_False|48_58 (ssRNA)
RNA: GGGAGUUCUACAGUCCGACGAUCCUCACACAUUGCUGUGAACAUCGCCUCCAAUGCUGACUUAUCACUGGGCACAAAUCUAAAUUCAGUAAUAGGUUCAACAUCAUCAUUGUCUUCCUCAUCUUCAUCAGAGAGAGGUUCUUUCAACAGAGGAUUGAGCAUCA
B10: chr15:66169770:66169771:+_ENSG00000103769_ENST00000567671|hu_hu|FALSE|FALSE (ssRNA)
RNA: GGGAGUUCUACAGUCCGACGAUCGUCCCAUAUCUGUGCCUUUAUUGUUUUUCCAUCAACCUGGAUGCUUCUUGUUGCAAACUCUACUCCAAUGGUGCUCUUGCUUUCCAGAUUAAACUCAUUUCGAGUAAAUCGAGACAGGAGCAACAGAGGAUUGAGCAUCA
B11: chrX:12734859:12734860:+_ENSMUSG00000031010_ENSMUST00000089302|mus_mus|motif|central (ssRNA)
RNA: GGGAGUUCUACAGUCCGACGAUCAUCACUGGCAGAUCCUCGGACUAUUUUCUUUGUGUGAAAUCCUGUAGUAAAAAGGAACCGGGCAGCAAGCUGAAUACUAAUCAUAGUGAUUUCUUCUGCUUCAGGAGACAGGUGAUCUUGCAACAGAGGAUUGAGCAUCA
B12: chr5:135101456:135101457:-_ENSMUSG00000040731_ENSMUST00000036125|mus_hu|FALSE|FALSE (ssRNA)
RNA: GGGAGUUCUACAGUCCGACGAUCGCCCAACAGUGCACCAUCGUAUGUCAAGGCUUCCUUAAGGGAAUCCACUUCAUCGAAUUCUACAUAGCAGAAUCCUUUAAAUUUAUCUGUGUCUUUGUCUCUGACUAGCCGUACACUCCUCAACAGAGGAUUGAGCAUCA
B13: chr6:40197388:40197389:+_ENSMUSG00000057716_ENSMUST00000061740|mus_mus|mus_mus_mus_hu_False|28_58 (ssRNA)
RNA: GGGAGUUCUACAGUCCGACGAUCGAGACACUGGGGUGGAUUUAUUCCACCUCUGUUUGGGUGCUAGCCACUAAGACAGCUAUUUUGGGAUUCAUGGCCUUGAAUAUCAAGAGGAAAAGGAAGAGGAUGGAAAGAGUCAAGAGUCAACAGAGGAUUGAGCAUCA
B14: chr14:78183846:78183847:+_ENSG00000119705_ENST00000557342|hu_hu|hu_hu_hu_mus_False|38_108 (ssRNA)
RNA: GGGAGUUCUACAGUCCGACGAUCUCUGUCUCAAAAAUCUUCAUCAGAUGUUUGAGCUCCGUGCAAAGCCUUUGCUCUUUGAGCUUGAACGUGGAUCUUUACUCCAUAAAGCACUGUCAGAAAAGGUAAUUUUUUUUUUAAAGACAACAGAGGAUUGAGCAUCA
B15: chr12:48362563:48362564:+_ENSG00000134291_ENST00000256686|hu_hu|hu_hu_hu_mus_False|8_8 (ssRNA)
RNA: GGGAGUUCUACAGUCCGACGAUCUCCGUCAAGCCCUUCGAUAGACCCUUGCGGGGGAAACUGUAAUCACUUUGUAUGGGGAAGGAAAAGAAACGCCAAAAACUUUCCAAAAAGCGGGGGUGGGGUGUCCCAGGCCUGGGAGGUCAACAGAGGAUUGAGCAUCA
B16: 50829727_50829847_2451_CDS_ENSMUSG00000056592_ENSMUST00000107972|mouse|control|control (ssRNA)
RNA: GGGAGUUCUACAGUCCGACGAUCACACUCACUACAUAUAUGGUGUUUUUCUCCAGUAUGAAUUUUCGUGUGUAGAUUGAGGGACGAUCGUCGGCUGAAGGCCUUCCCACAUUCGGAACAUGCAUAAGGCGUCUCCCCGGUAUGCAACAGAGGAUUGAGCAUCA
B17: chr9:58722913:58722914:-_ENSMUSG00000032340_ENSMUST00000068664|mus_mus|motif|central (ssRNA)
RNA: GGGAGUUCUACAGUCCGACGAUCGCGACAUACACGUUUGCUCCACACCCACUGGAAGGAAGCUGCUAGGCCCCAGCUCAACGGGGACACGACAAGACACACAAUGGUUUAGUUUCCAGAGUCACAGGAAAAUAUAAGACAUAUCAACAGAGGAUUGAGCAUCA
B18: chr1:29069144:29069145:+_ENSG00000198492_ENST00000541996|perfect_dup|motif|central (ssRNA)
RNA: GGGAGUUCUACAGUCCGACGAUCUGAGAAGUCAAUCCCACUGGGAAAGAAAUUAAAACCAUGCUGACCAAGAAAUGGAGUGCGGCCGGGGGCUCCUGGUUGCCCAAACAUUGCAUCUGGUAGGAAGUGGGGCUCUCCGUUGCUCAACAGAGGAUUGAGCAUCA
B19: chr12:105536279:105536280:+_ENSG00000136051_ENST00000332180|hu_mus|hu_hu_hu_mus_True|78_78 (ssRNA)
RNA: GGGAGUUCUACAGUCCGACGAUCAGCACUGAACAUGUAAUGUAAUCUGGCUGCAUCAACAGCAUUUUCAUAUACAUCAUCUAAAUAAAUCGGGAAGACAGCGCGAUGCCAGUAUAAAAAACAGCAGUCACACUGUGCUUGGACCAACAGAGGAUUGAGCAUCA
B20: 43452375_43452495_801_CDS_ENSG00000152518_ENST00000282388|human|control|control (ssRNA)
RNA: GGGAGUUCUACAGUCCGACGAUCAUGGCGAGUCAGGCUGCGCAGCUCGUGGAAGCCAUGCGCGAACUGGCACUUUUCGCCGUACUUGCACGUGCCGCUCUCCUCGAAGGGCCGGCACAGCUCGGUCUUGUAGCGCGUGGAGUUCAACAGAGGAUUGAGCAUCA
B21: chr19:16212804:16212805:+_ENSG00000167460_ENST00000300933|hu_hu|FALSE|FALSE (ssRNA)
RNA: GGGAGUUCUACAGUCCGACGAUCAGGAAAUAUGCAAAAGAACAUCACAUCAAGGAUCAAUUAAUUACCAUCUAUUAAUUACUAUAUGUGGGUAAUUAUGACUAUUUCCCAAGCAUUCUACGUUGACUGCUUGAGAAGAUGUUUCAACAGAGGAUUGAGCAUCA
B22: chr3:149686290:149686291:-_ENSG00000070087_ENST00000452853|perfect_dup|FALSE|FALSE (ssRNA)
RNA: GGGAGUUCUACAGUCCGACGAUCGCCAAGAGUCAAACCGUUGGUAAAGAAACCUUCCCGGUCUUUUCCUACAAUCAUAUCUAUUUCUAUUGGCGUAAUGCUCUGAAAGACGCCCCCGGCCGUGGCUGCCCAGACGUAUUUGGCCAACAGAGGAUUGAGCAUCA

Each binder was assayed against T1, UNK ZnF1-3 (assay: nsRBNS (natural sequence RNA bind-n-seq); RBNS binding buffer (assumed for nsRBNS): 25 mM Tris pH 7.5, 150 mM KCl, 3 mM MgCl2, 0.01% Triton X-100, 500 ug/ml BSA, 20 U/ml SUPERase-In, 4 C; UNK is unkempt and MSI1 is Musashi-1; names of the RNAs are library labels; protein concentration not given here; high values mean tight binding).
B1 gave a binding signal of 1.08 enrichment R. In the case of B2, the binding signal is reported as 1.03 enrichment R. B3 gave a binding signal of 1.22 enrichment R. With B4 the binding signal was 0.988 enrichment R. Work on B5 yielded a binding signal of 0.925 enrichment R. Work on B6 yielded a binding signal of 1.29 enrichment R. For B7, the binding signal was 1.25 enrichment R. B8 showed a binding signal of 1.2 enrichment R. Binder B9 has a binding signal of 1 enrichment R. Work on B10 yielded a binding signal of 0.876 enrichment R. With B11 the binding signal was 1.38 enrichment R. B12 gave a binding signal of 1 enrichment R. B13 gave a binding signal of 1.54 enrichment R. Binder B14 has a binding signal of 1.05 enrichment R. In the case of B15, the binding signal is reported as 2.13 enrichment R. B16 showed a binding signal of 0.719 enrichment R. In the case of B17, the binding signal is reported as 1.31 enrichment R. Work on B18 yielded a binding signal of 1.27 enrichment R. With B19 the binding signal was 2.56 enrichment R. Work on B20 yielded a binding signal of 0.439 enrichment R. Work on B21 yielded a binding signal of 0.404 enrichment R. Work on B22 yielded a binding signal of 0.967 enrichment R.
